{"source": "the supplement of paper PMC8183993", "note": "Where a name gives a salt, the structure may show the parent alone. Whole data set: some 3,100 compounds, median “mean cytoplasmic OPP incorporation (global translation) relative to DMSO” near 100, cut for the lowest 2% near 56. The list shows a part of the results.", "data": [{"system": "U2OS", "assay": "mean cytoplasmic OPP incorporation (global translation) relative to DMSO (% of DMSO); higher = more protein synthesis", "conditions": "10 µM; 24 h", "procedure": "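Primary image-based screen in U2OS cells: compounds at 10 uM for 24 h, then a 1 h o-propargyl-puromycin (OPP) pulse, click labelling, and high-throughput microscopy. Mean cytoplasmic OPP intensity and nuclei count were normalised to DMSO wells within each plate (DMSO = 100) and averaged over triplicate plates.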", "values": [{"smiles": "Cc1onc(O)c1C[C@H](N)C(=O)O", "mean cytoplasmic OPP incorporation": 94.3}, {"smiles": "O=C(O)CCC(CP(=O)(O)O)C(=O)O", "note": "(configuration not stated) [PMPA (NAALADase inhibitor)]", "mean cytoplasmic OPP incorporation": 105}, {"smiles": "CC(C)(C)OC(=O)c1ncn2c1[C@@H]1CCCN1C(=O)c1c(Br)cccc1-2", "note": "[Bretazenil]", "mean cytoplasmic OPP incorporation": 104}, {"smiles": "CN(C)C(=O)Oc1cccc([N+](C)(C)C)c1", "note": "[Neostigmine bromide]", "mean cytoplasmic OPP incorporation": 102}, {"smiles": "CN1[C@@H]2CC[C@H]1CC(OC(=O)N1Cc3ccccc3NC1=O)C2", "note": "(some centres not stated) [DAU 5884 hydrochloride]", "mean cytoplasmic OPP incorporation": 101}, {"smiles": "COc1ccc(C(CN(C)C)C2(O)CCCCC2)cc1", "note": "(configuration not stated) [Venlafaxine]", "mean cytoplasmic OPP incorporation": 101}, {"smiles": "CCc1c(C(=O)C(N)=O)c2c(OCC(=O)O)cccc2n1Cc1ccccc1", "mean cytoplasmic OPP incorporation": 100}, {"smiles": "CC(=O)[C@H]1CC[C@H]2[C@@H]3CC[C@@H]4CC(=O)CC[C@]4(C)[C@H]3CC[C@]12C", "note": "[5b-Pregnan-3,20-dione]", "mean cytoplasmic OPP incorporation": 98.1}, {"smiles": "CCNCC(O)c1cccc(O)c1", "note": "(configuration not stated) [Etilefrine hydrochloride]", "mean cytoplasmic OPP incorporation": 104}, {"smiles": "c1ccc(CC(c2ccccc2)N2CCCCC2)cc1", "note": "(racemic) [(±)-1-(1,2-Diphenylethyl)piperidine maleate]", "mean cytoplasmic OPP incorporation": 109}, {"smiles": "COc1ccc2[nH]cc(C3=CCNCC3)c2c1", "mean cytoplasmic OPP incorporation": 101}, {"smiles": "CCOC(=O)c1ncc2[nH]c3ccc(OCc4ccccc4)cc3c2c1COC", "mean cytoplasmic OPP incorporation": 106}, {"smiles": "CC(C)(N)Cc1ccccc1", "note": "[Phentermine hydrochloride]", "mean cytoplasmic OPP incorporation": 85.4}, {"smiles": "NP(N)(=O)NC(=O)c1ccc(F)cc1", "note": "[Flurofamide]", "mean cytoplasmic OPP incorporation": 99.6}, {"smiles": "Clc1cccc(SC2CCNCC2)n1", "note": "[Anpirtoline hydrochloride]", "mean cytoplasmic OPP incorporation": 115}, {"smiles": "CC(C)C[C@H]1C(=O)N2CCC[C@H]2[C@]2(O)O[C@](NC(=O)[C@@H]3C=C4c5cccc6[nH]c(Br)c(c56)C[C@H]4N(C)C3)(C(C)C)C(=O)N12", "note": "[Bromocryptine mesylate]", "mean cytoplasmic OPP incorporation": 107}, {"smiles": "CC(C)C[C@H]1C(=O)N2CCC[C@H]2[C@]2(O)O[C@](NC(=O)[C@@H]3C=C4c5cccc6[nH]c(Br)c(c56)C[C@H]4N(C)C3)(C(C)C)C(=O)N12", "note": "[Bromocriptine mesylate]", "mean cytoplasmic OPP incorporation": 107}, {"smiles": "c1ccc(CCCN2CCN(CCOC(c3ccccc3)c3ccccc3)CC2)cc1", "mean cytoplasmic OPP incorporation": 98.2}, {"smiles": "CN1[C@@H]2CC[C@H]1C[C@@H](OC(=O)C(CO)c1ccccc1)C2", "note": "(some centres not stated) [Atropine]", "mean cytoplasmic OPP incorporation": 108}, {"smiles": "CN1[C@@H]2CC[C@H]1C[C@@H](OC(=O)C(CO)c1ccccc1)C2", "note": "(some centres not stated) [Atropine sulfate monohydrate]", "mean cytoplasmic OPP incorporation": 96.9}, {"smiles": "CC[C@@H]1[C@@H](C)O[C@@](O)([C@@H](C)[C@H](O)[C@H](C)[C@H]2OC(=O)/C=C/C=C/[C@H](C)[C@@H]([C@@H](C)[C@@H](O)[C@H](C)[C@@]3(O)C[C@@H](O[C@H]4C[C@H](O)[C@H](O)[C@H](C)O4)[C@H](CC)[C@@H](C)O3)OC(=O)/C=C/C=C/[C@@H]2C)C[C@H]1O[C@H]1C[C@H](O)[C@H](O)[C@H](C)O1", "note": "[Azalomycin-B]", "mean cytoplasmic OPP incorporation": 104}, {"smiles": "CC(C)NCC(O)c1ccc(N)c(C#N)c1", "note": "(configuration not stated) [Cimaterol]", "mean cytoplasmic OPP incorporation": 101}, {"smiles": "CCC1=C[C@H]2CN3CCc4c([nH]c5ccccc45)[C@](C(=O)OC)(C2)[C@H]13", "note": "[Catharanthine]", "mean cytoplasmic OPP incorporation": 106}, {"smiles": "O=C(Cc1ccc(Cl)c(Cl)c1)N1CCCCC1CN1CCCC1", "note": "(configuration not stated)", "mean cytoplasmic OPP incorporation": 104}, {"smiles": "C=C(C)CN1CC[C@@]23c4c5ccc(O)c4O[C@H]2c2[nH]c4ccccc4c2C[C@]3(O)C1C5", "note": "[SDM25N hydrochloride]", "mean cytoplasmic OPP incorporation": 95.8}, {"smiles": "c1ccc(C2CC2)c(OCC2=NCCN2)c1", "note": "[Cirazoline hydrochloride]", "mean cytoplasmic OPP incorporation": 101}, {"smiles": "CNC(C)(C)Cc1ccccc1", "note": "[Mephentermine hemisulfate]", "mean cytoplasmic OPP incorporation": 99.4}]}]}
